Data published in PubChem BioAssay AID485344 (National Center for Advancing Translational Sciences (NCATS), 2010).
Among all 340,000 compounds or so, about 6,900 (2%) were called active. Rule as the data show it: active = inhibition above about 30%; inactive = below that, where a call was filed. The list shows a part of the results, in another mix than the full data. Where no call is shown, the source filed none.

Target: D(2) dopamine receptor (Homo sapiens) (UniProt P14416)
Test: HTS Assay for Allosteric Antagonists of the Human D2 Dopamine Receptor: Primary Screen for Antagonists; also: 0% is about no effect
Conditions: HEK293 TREx D2 cells, calcium flux, dopamine EC80; at 10 µM; stronger effect = higher value
Procedure, shortened: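 Cells plated overnight at 30 C with tetracycline; no-wash calcium dye, 30–90 min RT; 10 s baseline; compound pinned; 180 s read; EC80 dopamine added; another 180 s read.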

Chain of UniProt P14416 (P14416 whole entry, looked up): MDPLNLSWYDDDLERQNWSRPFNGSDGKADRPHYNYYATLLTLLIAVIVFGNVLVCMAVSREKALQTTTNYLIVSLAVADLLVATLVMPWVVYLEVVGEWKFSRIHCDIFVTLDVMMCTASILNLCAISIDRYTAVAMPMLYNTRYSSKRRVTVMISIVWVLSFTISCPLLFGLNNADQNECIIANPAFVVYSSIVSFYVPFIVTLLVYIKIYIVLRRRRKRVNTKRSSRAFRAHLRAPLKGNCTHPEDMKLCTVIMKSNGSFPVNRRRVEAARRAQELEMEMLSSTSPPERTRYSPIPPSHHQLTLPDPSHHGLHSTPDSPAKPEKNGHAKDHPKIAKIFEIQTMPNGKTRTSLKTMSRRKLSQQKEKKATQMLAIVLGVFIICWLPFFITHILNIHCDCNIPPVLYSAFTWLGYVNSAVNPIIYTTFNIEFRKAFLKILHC

SMILES	inhibition
Cc1c(Cl)cccc1NC(=O)CSc1ccc(-c2ccccn2)nn1	4.34%
COc1ccc(N2CCN(C(=O)C3Cc4ccccc4N3C(C)=O)CC2)cc1 (centres undefined)	-2.95%
Cc1c(C)c2cc3c(c(C)c2oc1=O)OCN(CCc1ccccc1)C3	2.28%
Cc1cc(C)cc(N2CCn3c2nc2c3c(=O)n(C/C=C/c3ccccc3)c(=O)n2C)c1	18.2%
CCOc1cc(CNC(=O)C2CCN(c3nc4ccccc4[nH]3)CC2)cc(OCC)c1OCC	4.02%
Cc1ccc(C(=O)N/N=C\c2cc3c(cc2Br)OCO3)s1	active: 65.8%
COc1cc(OC)c(NC(=O)N2CCC(CN3CCOCC3)CC2)cc1Cl	-24.7%
Cc1nc(-c2ccc(F)cc2)c(CC(=O)N2CCN(S(=O)(=O)c3cccc(Cl)c3)CC2)s1	active: 34.1%
CCc1cccc(NC(=O)CCc2c(C)nc3c(-c4ccccc4)c(C)nn3c2C)c1	9.57%
Cc1nn2c(=O)cc(COC(=O)c3ccccc3NC(=O)c3cccs3)nc2s1	24.3%
CCc1ccccc1NS(=O)(=O)c1ccc2c(c1)CCCN2C(=O)C1CCC1	-3.85%
CC(C)NC(=O)c1ccc2c(c1)N(Cc1cccc(Cl)c1)C(=O)c1ccccc1S2=O (centres undefined)	16.2%
COc1ccc(NC(=O)CN2CCN(Cc3ccccc3Cl)S2(=O)=O)cc1Cl	14.6%
COCc1nnc(NC(=O)c2ccc(OC)cc2OC)s1	active: 39.4%
CCCN1C(=O)C(O)(CC(=O)c2ccc(C(C)C)cc2)c2ccccc21 (centres undefined)	9.27%
COC(=O)c1sc2c(c1C)c(=O)n(-c1ccccc1)c(=O)n2CC(=O)Nc1cccc(C)c1	13.1%
CC(C)c1ccc(NS(=O)(=O)c2cc(Br)cc3c2N(C(=O)C2CC2)CC3)cc1	-1.02%
COc1ccc(OC)c(-c2noc(N3CCN(c4ccc(Cl)cc4)CC3)n2)c1	-16.2%
Cn1cnc(S(=O)(=O)N2CCCC(C(=O)NCc3ccc(F)cc3)C2)c1 (centres undefined)	19.9%
Cc1ccc(S(=O)(=O)N(CCc2ccccc2)CC(=O)Nc2ccccc2C)cc1	0.519%
Cc1ccc(C(=O)N2CCn3c4c(c5cc(C)ccc53)CCCC42)cc1 (centres undefined)	10%
CCOc1ccc(NC(=O)C(=O)NCCc2csc(-c3ccc(C(F)(F)F)cc3)n2)cc1	8.38%
Cc1cc(C)cc(NS(=O)(=O)c2ccc3[nH]cc(C(=O)NCCc4ccccc4)c(=O)c3c2)c1	1.34%
Cc1cc(NC(=O)Nc2nnc(N3CCCCCC3)s2)ccc1Br	-3.86%

SMILES	inhibition
Cc1ccc(CNC(=O)c2ccc(Nc3nc4ccccc4n4nnnc34)cc2)cc1	15.5%
Cc1ccc(-c2nn(-c3ccccc3)c3c2cnc2ccccc23)cc1C	17.9%
OC1(c2ccc(Cl)cc2)CCN(Cc2cn[nH]c2-c2ccc(F)cc2)CC1	active: 56.4%
O=C(COc1ccc(Cl)cc1)Nc1nnc(S(=O)(=O)N2CCCCCC2)s1	12.4%
CCOc1cccc(CC(=O)N2CCc3c([nH]c4ccc(OC)cc34)C2c2ccc(F)cc2)c1OCC (centres undefined)	9.74%
CC(=O)N1CCCc2cc(S(=O)(=O)N3CCC(C(=O)Nc4ccc(C)cc4Cl)CC3)ccc21	1.99%
CCCCOc1ccc(C2C(C(=O)Nc3ccccc3OC)=C(C)Nc3nnnn32)cc1OC (centres undefined)	10.2%
Cc1ccn2c(Nc3ccc4c(c3)OCCO4)c(-c3ccccc3O)nc2c1	-5.01%
Cc1ccc(S(=O)(=O)n2nc(C)c(S(=O)(=O)N3CCCCCC3)c2C)cc1C	2.58%
COc1ccccc1N1CCN(C(CNC(=O)C(=O)NCc2cccnc2)c2cccnc2)CC1 (centres undefined)	-27.7%
CCN(CC)CCCNC(=O)CCC(=O)NNc1nc2ccccc2c2nc(C)nn12	4.67%
CCOC(=O)c1c(NC(=O)c2cc(-c3ccc(OC)c(OC)c3)on2)sc(C)c1C	8.52%
Cc1ccccc1CNC(=O)CSc1nnc(C)c2c(C)n(-c3ccccc3)nc12	18%
CCOc1ccccc1NC(=O)c1ccc(F)c(S(=O)(=O)N2CCN(c3ccc(F)cc3)CC2)c1	11.4%
COc1ccc(Nc2nc3ccc(Cl)cc3nc2-n2nc(C)cc2C)cc1	-4.6%
CCOc1ccc(C(=O)NCC(c2cccs2)S(=O)(=O)c2ccccc2)cc1 (centres undefined)	-6.27%
Cc1cccc(C(=O)N2CCc3cc(CNC(=O)CSc4ccccc4)ccc32)c1	-1.1%
CCOc1ccc(NC(=O)c2cc(C)nc3c2c(C)nn3-c2ccc(C)cc2)cc1	15.6%
CCOc1ccc(C(=O)NCCSc2c(C)[nH]c3ccccc23)cc1OCC	7.92%
COc1cccc(C(=O)Oc2c(Sc3ccc(C)cc3)c(C)nn2C(C)(C)C)c1OC	0.583%
CCOC(=O)C1=CN(Cc2ccc(OC)cc2)C=C(C(=O)OCC)C1c1cccs1	active: 42.1%
COc1ccc(NC(=O)c2cc(S(=O)(=O)N3CCCC3)ccc2OC)cc1	1.72%
COC(=O)c1ccccc1NC(=O)CN1C(=O)COc2ccc(Cl)cc21	6.19%
CC(C)Cc1nn2c(=O)cc(COC(=O)c3ccc(NC(=O)C4CCCCC4)cc3)nc2s1	6.23%

SMILES	inhibition
COc1ccccc1N1CCN(C2CCCN(Cc3cc(F)cc(F)c3)C2)CC1 (centres undefined)	active: 40.9%
CCN(CCCNC(=O)c1nn(-c2ccc(C)cc2)c(=O)c2c1c1ccccc1n2C)c1cccc(C)c1	10.7%
CCc1ccc2c(CN3CCc4cc(OC)c(OC)cc4C3)cc(=O)oc2c1	active: 31.6%
COc1cccc(CNC(=O)CN2C(=O)COc3ccc(S(=O)(=O)N4CCOCC4)cc32)c1	9.69%
Cc1cccc(NC(=O)CN2C(=O)C(c3ccc(F)cc3)=NC23CCCCCC3)c1	12.5%
Cc1ccc2c(c1)-c1c(c(C(=O)N3CCN(c4cc(C)ccc4C)CC3)nn1C)CS2	-1.7%
Cc1ccc(CNC(=O)c2ccc(N3CCCC3)c(NC(=O)Nc3ccc(F)c(Cl)c3)c2)cc1	7.47%
CC(=O)c1c(C)oc2c1cc(NS(=O)(=O)c1ccc(C(C)(C)C)cc1)c1ccccc12	0.415%
COc1ccc(NC(=O)Cn2c(=O)c3ccccc3n3nncc23)c(OC)c1	-22.8%
O=C(CSc1ncnc2scc(-c3ccccc3)c12)N1CCN(Cc2ccc3c(c2)OCO3)CC1	active: 69.7%
Cc1ccc(CNC(=O)C(C)n2nc(C)c3sc4ccccc4c3c2=O)cc1 (centres undefined)	11.7%
Cc1cc(C)c(NC(=O)Cn2c(=O)n(Cc3ccc(C(=O)NCc4ccc5c(c4)OCO5)cc3)c(=O)c3ccccc32)c(C)c1	-5.97%
Cc1ccc2nc(-c3ccc(Cl)s3)c(Nc3ccc4c(c3)OCCO4)n2c1	3.38%
COc1cccc(-n2c(SCc3ccc(F)cc3)nc3c([nH]c4ccccc43)c2=O)c1	9.06%
COC(=O)c1ccc(NC(=O)CN(C)S(=O)(=O)c2ccc(Br)s2)cc1	-5.91%
Cc1nn2c(C)c(C(=O)NCc3ccc(OC(C)C)cc3)cnc2c1-c1ccc(F)cc1	-9.68%
Cc1ccc(/C=C/C(=O)Nc2nc(-c3cccs3)ns2)cc1	-4.34%
COc1ccc(-n2cc(C(=O)N(CCN(C)C)Cc3ccccc3)c3ccccc3c2=O)cc1	-14%
COc1cc(C(=O)N(Cc2ccc(F)cc2)Cc2ccco2)cc(OC)c1OC	-16.8%
Cc1ccc(N(CC(=O)Nc2cccc(Cl)c2C)S(=O)(=O)c2c(C)noc2C)cc1	-15.7%
CCn1c(C)c(C)c2cc(C(=O)NCCCN3CCCCC3C)ccc21 (centres undefined)	-10.4%
COc1ccc(CNC(=O)CS(=O)Cc2nc(-c3ccc(OC)c(OC)c3)oc2C)cc1 (centres undefined)	-9.56%
COc1ccc(Cn2c(=O)[nH]c3cc(C(=O)NCCC(C)C)ccc3c2=O)cc1	1.4%
Cc1cc(C)c(NC(=O)CSc2nc3ccccc3c3nc(CCn4cncc4C)nn23)c(C)c1	5.42%

SMILES	inhibition
CN1CCN(c2ccc([N+](=O)[O-])c(Sc3nc4ccccc4[nH]3)c2)CC1	active: 88.9%
O=S(=O)(c1ccc(Cl)cc1)c1nc(-c2ccccc2Br)oc1NCc1ccccc1	-18.7%
COc1ccc(CCNC(=O)CSc2nc3nc(C)c(Cc4ccc(C)cc4)c(C)n3n2)cc1OC	-13.6%
Cc1ccc(C)c(OCCn2c(C3CC(=O)N(Cc4ccc(F)cc4)C3)nc3ccccc32)c1 (centres undefined)	7.35%
CCN(CC)CCCNc1cc(-c2ccccc2)nc(C)n1	-6.04%
Cc1ccccc1CNC(=O)c1nn(-c2ccccc2F)nc1CO	8.1%
O=c1c2sccc2n(Cc2cc(=O)n3ccccc3n2)c(=O)n1-c1cc(F)ccc1F	-4%
COc1cccc2c1Oc1ncccc1N(C(=O)CCC(=O)NCCC(C)C)C2	-9.43%
COc1ccc(C(=O)Nc2ccc(-c3nnc4n3CCCCC4)cc2)cc1	-18.7%
CCn1nc(-c2ccccc2)c(-c2ccccc2)c(C(=O)Nc2ccc(S(N)(=O)=O)cc2)c1=O	6.04%
COc1cc(OC)cc(C(=O)Nc2cc(-c3nc4ccccc4[nH]3)ccc2C)c1	-5.83%
COC(=O)c1c(SC)nc2ccccc2c1OCc1ccc(Br)cc1	-1.49%
CCOC(=O)C1CCCN(c2nc3c(S(=O)(=O)c4ccc(Br)cc4)nnn3c3ccsc23)C1 (centres undefined)	-4.5%
Cc1cccc(-c2noc(-c3ccc(NCc4ccco4)c([N+](=O)[O-])c3)n2)c1	-12%
O=C(c1ccco1)N1CCN(c2nc3c(F)cc(F)cc3s2)CC1	-2.77%
CCC(=O)N1c2ccccc2CC1C(=O)NCc1cccc(OC)c1OC (centres undefined)	-10.8%
COc1cccc(-c2ccc(-c3noc(-c4ccccc4Br)n3)c(OC)n2)c1	2.37%
Cc1ccc2nc(COc3ccccc3NC(=O)c3ccccc3C)cc(=O)n2c1	8.26%
COc1ccc(-c2nnc(SCC(=O)Nc3cc(OC)ccc3OC)nc2-c2ccc(OC)cc2)cc1	22.3%
O=S(=O)(c1ccc(Cl)cc1)c1nc(-c2cccc(Br)c2)oc1NCc1ccccc1	3.81%
COc1ccc(CCn2c(=O)c3cccnc3n(CC(=O)Nc3c(C)cccc3C)c2=O)cc1OC	1.96%
CCc1cccc(C)c1NC(=O)Cn1c(=O)n(-c2ccc(C)cc2)c(=O)c2c1cnn2C	2.23%
